Data published in the RNAGym collection of RNA variant scans (doi:10.1073/pnas.2313332121).
This sample is rich in variants without activity.

B1: TPR 5TU (parent)
chain: GGAUCUUCUCGAUCUAACAAAAAAGACAAAUCUGCCACAAAGCUUGAGAGCAUCUUCGGAUGCAGAGGCGGCAGCCUUCGGUGGCGCGAUAGCGCCAACGUUCUCAACUAUGACACGCAAAACGCGUGCUCCGUUGAAUGGAGUUUAUCAUG

Variants of: B1
Assay: polymerase ribozyme fitness, log enrichment relative to wild type (log ratio); higher = more active; in vitro selection for triplet polymerase activity
In short: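 Libraries of mutants in each subunit of a heterodimeric triplet polymerase ribozyme were generated by PCR and transcribed. In triplicate, each went through one in vitro selection round: annealing with biotinylated primer, partner subunit and triplets; frozen incubation at −7 °C; gel excision of extended constructs; streptavidin-bead capture; RT-PCR. Fitness, taken from Illumina sequencing of input and output libraries, is the logarithm of a genotype's enrichment over wild-type enrichment, averaged across replicates with inverse-variance weights. The logarithm is base 2, and genotypes needed ≥10 input reads and ≥1 read per output to be kept.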

Row | Variant | polymerase ribozyme fitness (log ratio)
1 | U13C A49G U55A C79U G92U C95A G140A | ≤ -4.2
2 | U13G A21U C43A U55A G58U C87G G143U | ≤ -4.2
3 | U13A G50C C76G C79G U90A G92C U134G | ≤ -4.2
4 | U13G G71U U77G C79U | ≤ -4.2
5 | C14A A91C | ≤ -4.2
6 | U13C G25C C76A A97U C103G C105G U139C | ≤ -4.2
7 | U13C C57U U78A G92C C93A C95U A122U | ≤ -4.2
8 | U13G U127A | ≤ -4.2
9 | C14A A19U A21C A60G | -1.8
10 | C14A A60G U61A A98G U109G C149A | ≤ -4.2
11 | U13C A16C A23U A29U A60C C76U | ≤ -4.2
12 | C14A G94A U109C A122G | ≤ -4.2
13 | U13G G34A G86A U101C C103U U127C | ≤ -4.2
14 | C14A A41C G94C | -2.95
15 | U13G C54A C95A A113C U139G U151G | ≤ -4.2
16 | C14G A19G C76A C85U A91U A115C A150G | ≤ -4.2
17 | C14G A24U U78A G86U U145G | ≤ -4.2
18 | U13A C36A G92C A97U | ≤ -4.2
19 | U13A C51U C72U G84U A106G A121U C123A A138C | ≤ -4.2
20 | U13A A73U A89U C96U A106C | ≤ -4.2
21 | C14A G48U C93A A107G G126U U144G | ≤ -4.2

Row | Variant | polymerase ribozyme fitness (log ratio)
22 | U13C A47C C75G A91U C93A | ≤ -4.2
23 | U13A C51U G65U U82A G84U A119U G140C | ≤ -4.2
24 | C14G A24U C51A C54U C76G A119G C123U U146C | ≤ -4.2
25 | U13G A23U A29G C36G A41C | ≤ -4.2
26 | C14G A22U A40G U90G C93A U148A | ≤ -4.2
27 | U13G A24U G58U G74C C95U U127A C129U | ≤ -4.2
28 | C14G A22C A73U | -3.92
29 | C14A U44A G46A A47C G88U A98G U101G | ≤ -4.2
30 | U13G A19C G48U C75A C96U A107G G126C | ≤ -4.2
31 | C14A A17C A26G C36A C85G C96U A97U C108U A142C | ≤ -4.2
32 | U13G A29U G65C A66G G88A A91C C103G A110C C132U | ≤ -4.2
33 | U13G A37U U55A C57A C76U G86A U127C | ≤ -4.2
34 | C14A A47U G86A A91G | ≤ -4.2
35 | U13G A29U C75A U77G C93U | ≤ -4.2
36 | U13C C27U U61A C85G A120C C125G | ≤ -4.2
37 | C14A A20C G58C G70C G94U C123G | ≤ -4.2
38 | C14A G50C A66U G81U C87A U145A | ≤ -4.2
39 | U13C A28C C32U A49C G50A A91U G94A | ≤ -4.2
40 | U13A A22U A89G C95A | -1.67
41 | C14G A24C A26U C32A C35A G112U | ≤ -4.2
42 | U13C G94C U104G | -2.15

Row | Variant | polymerase ribozyme fitness (log ratio)
43 | U13C C76A U82G C85U C118G | -2.92
44 | U13G U53A G59C C87U C96A A113G C125U | ≤ -4.2
45 | U13A U45A U56A G74A | ≤ -4.2
46 | U13G A17C A29U G83C C95U A119G A120G A147U | ≤ -4.2
47 | C14A U15G A37U C79U C93G A106U U144C U145G | ≤ -4.2
48 | U13G G83C U101G G133U | ≤ -4.2
49 | C14A U15G A24U U55G G92A C131G | ≤ -4.2
50 | U13C A19C C35U U45A C57G U61C C69A U78G G83A U134G U151G | ≤ -4.2
51 | C14A G34A A40C U55G C87G C114G G117U A121C U139A | ≤ -4.2
52 | U13A A110G | ≤ -4.2
53 | U13C G50U G59A U82C A121U G136A | -1.14
54 | C14G A23G C54U A64C C72U G94C C114G U148G | ≤ -4.2
55 | C14A G25C G46U C54U G67A U78C G83C G88C G94A C108U | ≤ -4.2
56 | C14A C38U C96G A119C C149G | ≤ -4.2
57 | U13G A24C A26G G50A C76U C123U | ≤ -4.2
58 | U13G A19C G62C G65A U82G C87G G143A | ≤ -4.2
59 | C14A G34U G74C G84U G143A | ≤ -4.2
60 | U13C A41C U56G G59A A73U C85U | ≤ -4.2
61 | U13A C32U A40C G50U G84U C95U C125G U145C | ≤ -4.2
62 | C14A C32U A52U C85G U90A A115C | ≤ -4.2
63 | U13G U31C A41U G70C C85A C105U C114A G141A U148A | ≤ -4.2

Row | Variant | polymerase ribozyme fitness (log ratio)
64 | U13A A40G U77A C87G C99G G117U | ≤ -4.2
65 | U13G G71A C116U | ≤ -4.2
66 | U13A G42U U55A C57A G59A A60C G92A C103A | ≤ -4.2
67 | C14G A24G U31A A49C A52C C54A U56A A73U A89G C99G A107C C149G | ≤ -4.2
68 | U13C C27U U53A U55G U56A G62A G88C A113U A115G | ≤ -4.2
69 | U13G A40U G74A C87A G94C | ≤ -4.2
70 | U13A G74C C93U G124A | ≤ -4.2
71 | U13G C32G G50A G80A G88A G128A U146A | ≤ -4.2
72 | C14A A49C G84A A115C | ≤ -4.2
73 | C14A A26U A37G C54G G94U | ≤ -4.2
74 | C14A A26U C76U C96A A97C C118G | ≤ -4.2
75 | C14A A52G G94U U135G C149G | ≤ -4.2
76 | U13G A23U A28U G94A | ≤ -4.2
77 | U13A A41U A64C C87A C108G | ≤ -4.2
78 | C14G A19G C108U C118G | ≤ -4.2
79 | C14A A39U C87G | ≤ -4.2
80 | U13G C14G A20U A37G A47C A49U C99U C149U | ≤ -4.2
81 | U13A G80A A107U U144G U145G C149U | ≤ -4.2
82 | C14A A17G A29C A37G G68U G88C A119U G152C | ≤ -4.2
83 | U13G A26U A91G C108U | ≤ -4.2
84 | U13G A21C C27A U55A C99A C103G | ≤ -4.2
